The IC50 comes from the fitted curve, where viability falls to half of the control; a limit (>, <) means that the fit lies beyond the doses tested. For AUC the same curve is integrated over the 256-fold range of doses and scaled to a fraction; values near 1 show little effect. For some assays here: The top dose, if marked as inferred, was derived from the fitted curves, not read from the paper. For some assays here: Where an entry number is given, a second screen of the drug exists; the two often differ.
How the values were obtained:
Test in all cases: Viability of human cancer cell lines after 72 h of drug (GDSC screen)
Docetaxel = compound: CC(=O)O[C@@]12CO[C@@H]1C[C@H](O)[C@@]1(C)C(=O)[C@H](O)C3=C(C)[C@@H](OC(=O)[C@H](O)[C@@H](NC(=O)OC(C)(C)C)c4ccccc4)C[C@@](O)([C@@H](OC(=O)c4ccccc4)[C@H]21)C3(C)C [Docetaxel]; conditions: top dose 0.0125 µM
Description: (§1)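 Human cancer cell lines in 384-well plates, medium with 10% serum, drug for 72 h over a 256-fold dose range (nine 2-fold or five 4-fold steps up to the top dose). Adherent lines were fixed and stained with the nucleic acid dye Syto60, suspension lines read with resazurin; signal relative to control wells, capped at 0 and 100%. One two-parameter sigmoid per drug and line, fitted in a mixed model over all curves with the slope shared within a line.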

AMG-706 = compound: CC1(C)CNc2cc(NC(=O)c3cccnc3NCc3ccncc3)ccc21 [AMG-706]; conditions: top dose 2 µM; top dose inferred
Description: as §1

Cyclopamine = compound: CC1=C2C[C@H]3[C@@H](CC=C4C[C@@H](O)CC[C@@]43C)[C@@H]2CC[C@]12O[C@@H]1C[C@H](C)CN[C@H]1[C@H]2C [Cyclopamine]; conditions: top dose 16 µM; top dose inferred
Description: as §1

JNK Inhibitor VIII = compound: CCOc1nc(NC(=O)Cc2cc(OC)ccc2OC)cc(N)c1C#N [JNK Inhibitor VIII]; conditions: top dose 10 µM; top dose inferred
Description: as §1

NSC-207895 = compound: CN1CCN(c2ccc([N+](=O)[O-])c3no[n+]([O-])c23)CC1 [NSC-207895]; conditions: top dose 20 µM; top dose inferred
Description: as §1

FTI-277 = compound: COC(=O)[C@H](CCSC)NC(=O)c1ccc(NC[C@@H](N)CS)cc1-c1ccccc1 [FTI-277]; conditions: top dose 1.024 µM; top dose inferred
Description: as §1

YM155 = compound: COCC[n+]1c2c(n(Cc3cnccn3)c1C)C(=O)c1ccccc1C2=O [YM155]; conditions: top dose 5.12 µM
Description: as §1

NVP-TAE684 = compound: COc1cc(N2CCC(N3CCN(C)CC3)CC2)ccc1Nc1ncc(Cl)c(Nc2ccccc2S(=O)(=O)C(C)C)n1 [NVP-TAE684]; conditions: top dose 2 µM
Description: as §1

OSI-906 = compound: C[C@]1(O)C[C@@H](c2nc(-c3ccc4ccc(-c5ccccc5)nc4c3)c3c(N)nccn32)C1 [OSI-906]; conditions: top dose 2.56 µM; top dose inferred
Description: as §1

SB-715992 = compound: Cc1ccc(C(=O)N(CCCN)[C@@H](c2nc3cc(Cl)ccc3c(=O)n2Cc2ccccc2)C(C)C)cc1 [SB-715992]; conditions: top dose 0.128 µM; top dose inferred
Description: as §1

JQ1 = compound: Cc1sc2c(c1C)C(c1ccc(Cl)cc1)=N[C@@H](CC(=O)OC(C)(C)C)c1nnc(C)n1-2 [JQ1]
Description: as §1

Belinostat = compound: O=C(/C=C/c1cccc(S(=O)(=O)Nc2ccccc2)c1)NO [Belinostat]; conditions: top dose 20 µM; top dose inferred
Description: as §1

CGP-60474 = compound: OCCCNc1cc(-c2ccnc(Nc3cccc(Cl)c3)n2)ccn1 [CGP-60474]; conditions: top dose 0.256 µM; top dose inferred
Description: as §1

JNJ-26854165 = compound: c1ccc2c(CCNc3ccc(Nc4ccncc4)cc3)c[nH]c2c1 [JNJ-26854165]; conditions: top dose 10 µM
Description: as §1

[1] = top dose 2.56 µM, screen: GDSC drug entry 163
[2] = top dose 1 µM, screen: GDSC drug entry 1218, top dose inferred

Row | Cell Line | AUC (Docetaxel) | IC50 (Docetaxel) | AUC (AMG-706) | IC50 (AMG-706) | AUC (Cyclopamine) | IC50 (Cyclopamine) | AUC (JNK Inhibitor VIII) | IC50 (JNK Inhibitor VIII) | AUC (NSC-207895) | IC50 (NSC-207895) | AUC (FTI-277) | IC50 (FTI-277) | AUC (YM155) | IC50 (YM155) | AUC (NVP-TAE684) | IC50 (NVP-TAE684) | AUC (OSI-906) | IC50 (OSI-906) | AUC (SB-715992) | IC50 (SB-715992) | AUC (JQ1; [1]) | IC50 (JQ1; [1]) | AUC (Belinostat) | IC50 (Belinostat) | AUC (CGP-60474) | IC50 (CGP-60474) | AUC (JNJ-26854165) | IC50 (JNJ-26854165) | AUC (JQ1; [2]) | IC50 (JQ1; [2])
1 | MY-M12 (leukaemia, suspension) | 0.937 | > 12.5 nM | 0.98 | > 2000 nM | 0.894 | > 16000 nM | 0.98 | > 10000 nM | 0.724 | 5950 nM | 0.974 | > 1020 nM | 0.028 | < 20 nM | 0.979 | > 2000 nM | 0.92 | > 2560 nM | 0.684 | 28.2 nM | 0.676 | 530 nM | 0.112 | < 78.1 nM | 0.645 | 42.8 nM | 0.907 | > 10000 nM |  | 
2 | NCI-H187 (small cell lung carcinoma, suspension) | 0.962 | > 12.5 nM | 0.987 | > 2000 nM | 0.988 | > 16000 nM | 0.985 | > 10000 nM | 0.795 | 10200 nM | 0.988 | > 1020 nM | 0.037 | < 20 nM | 0.88 | > 2000 nM | 0.934 | > 2560 nM | 0.96 | > 128 nM | 0.938 | > 2560 nM | 0.341 | 435 nM | 0.834 | 186 nM | 0.948 | > 10000 nM | 0.985 | > 1000 nM
3 | NCI-H209 (small cell lung carcinoma, suspension) | 0.862 | 11.9 nM | 0.982 | > 2000 nM | 0.982 | > 16000 nM | 0.977 | > 10000 nM | 0.98 | > 20000 nM | 0.986 | > 1020 nM | 0.981 | > 5120 nM | 0.95 | > 2000 nM | 0.965 | > 2560 nM | 0.883 | > 128 nM | 0.897 | > 2560 nM | 0.983 | > 20000 nM | 0.817 | 156 nM | 0.829 | 6810 nM | 0.909 | > 1000 nM
4 | NCI-H226 (lung squamous cell carcinoma, adherent) | 0.764 | 4.78 nM | 0.987 | > 2000 nM | 0.986 | > 16000 nM | 0.987 | > 10000 nM | 0.982 | > 20000 nM | 0.985 | > 1020 nM | 0.055 | < 20 nM | 0.98 | > 2000 nM | 0.896 | > 2560 nM | 0.877 | > 128 nM | 0.89 | > 2560 nM | 0.323 | 389 nM | 0.866 | 247 nM | 0.842 | 7570 nM | 0.986 | > 1000 nM
5 | NCI-H510A (small cell lung carcinoma, semi-adherent) | 0.909 | > 12.5 nM | 0.99 | > 2000 nM | 0.988 | > 16000 nM | 0.99 | > 10000 nM | 0.733 | 5390 nM | 0.987 | > 1020 nM | 0.022 | < 20 nM | 0.81 | 949 nM | 0.985 | > 2560 nM | 0.915 | > 128 nM | 0.854 | 1760 nM | 0.244 | 248 nM | 0.763 | 85.2 nM | 0.956 | > 10000 nM |  | 
6 | NCI-H526 (small cell lung carcinoma, suspension) | 0.849 | 8.77 nM | 0.989 | > 2000 nM | 0.989 | > 16000 nM | 0.988 | > 10000 nM | 0.973 | > 20000 nM | 0.986 | > 1020 nM | 0.025 | < 20 nM | 0.907 | > 2000 nM | 0.862 | 2040 nM | 0.817 | 67.4 nM | 0.567 | 241 nM | 0.288 | 326 nM | 0.849 | 180 nM | 0.948 | > 10000 nM | 0.987 | > 1000 nM
7 | NCI-H747 (large intestine, adherent) | 0.875 | > 12.5 nM | 0.981 | > 2000 nM | 0.978 | > 16000 nM | 0.982 | > 10000 nM | 0.934 | > 20000 nM | 0.969 | > 1020 nM | 0.039 | < 20 nM | 0.704 | 539 nM | 0.758 | 1070 nM | 0.89 | > 128 nM | 0.658 | 487 nM | 0.495 | 1210 nM | 0.668 | 52.2 nM | 0.898 | > 10000 nM | 0.962 | > 1000 nM
8 | NCI-H1838 (lung adenocarcinoma, adherent) | 0.977 | > 12.5 nM | 0.98 | > 2000 nM | 0.987 | > 16000 nM | 0.945 | > 10000 nM | 0.986 | > 20000 nM | 0.986 | > 1020 nM | 0.251 | 51.8 nM | 0.972 | > 2000 nM | 0.982 | > 2560 nM | 0.985 | > 128 nM | 0.986 | > 2560 nM | 0.884 | > 20000 nM | 0.929 | > 256 nM | 0.876 | > 10000 nM | 0.985 | > 1000 nM
